Experimental data published in PMC5892938.
The list shows a part of the results. At the low end of the ranking, values are background and their order means little.

What follows are sequences tested against GST-SBP-SLBP (stem-loop binding protein) (UniProt Q14493) (assay: targeted RNA Bind-n-Seq). Conditions: RBNS binding buffer: 25 mM Tris pH 7.5, 150 mM KCl, 3 mM MgCl2, 0.1% Tween, 0.5 mg/mL BSA, 1 mM DTT; 27 nM protein, 750 pM RNA pool; temperature not stated; high values mean tight binding.
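Note: DESeq read counts versus GST-SBP nonspecific binding control pulldown.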

Sequence	binding signal (log2 fold change)
GGUCACGUCUCAAUCAACUCCCAAGAGGGGGGGAAAACCCCUUUACCCUCAAUUUCAACAGCUCGCAGUCAAG	-0.0978
GGUCACGUCUCAAUCAACUCCUUAGAGGGGGGGAAAACCCCUUUACCCUCCAAUUCAACAGCUCGCAGUCAAG	-0.0478
GGUCACGUCUCAAUCAACUCAUAAGAGGGGGGGAAAACCCCUUUACCCUCAAUAUCAACAGCUCGCAGUCAAG	-0.44
GGUCACGUCUCAAUCAACUCAACUUCCAGGGAAAACCCUGGCAUACUCAACAGCUCGCAGUCAAG	0.287
GGUCACGUCUCAAUCAACUCAUUUUCAGGAGUUUUCUCCUGUAUUUUCAACAGCUCGCAGUCAAG	-0.262
GGUCACGUCUCAAUCAACUCUAUUUCAGGAGUUUCCUCCUGUUAAUUCAACAGCUCGCAGUCAAG	-0.0965
GGUCACGUCUCAAUCAACUCAAACGAGGGGGGGAAAACCCCUUUACCCUCAUAAUCAACAGCUCGCAGUCAAG	0.0835
GGUCACGUCUCAAUCAACUCAUAAGAGGGGGGGAAAACCCCUUUGCCCUCAUAAUCAACAGCUCGCAGUCAAG	-0.02
GGUCACGUCUCAAUCAACUCUUCGGCAGGAGUUUACUCCUGGAAUCUCAACAGCUCGCAGUCAAG	0.0554
GGUCACGUCUCAAUCAACUCAUUUCCAGGAGUUUUCUCCUGUAUUUUCAACAGCUCGCAGUCAAG	0.0649
GGUCACGUCUCAAUCAACUCAUCCUCAGGAGUUUUCUCCUGUUAUCUCAACAGCUCGCAGUCAAG	0.128
GGUCACGUCUCAAUCAACUCAUUUCCCAGGGAAAGCCCUGGUUUACUCAACAGCUCGCAGUCAAG	-0.0348
GGUCACGUCUCAAUCAACUCUCAAGAGGGGGGGAAAACCCCUUUACCCUCACUUUCAACAGCUCGCAGUCAAG	-0.131
GGUCACGUCUCAAUCAACUCAUUCCCCAGGGAAACCCCUGGUAUUCUCAACAGCUCGCAGUCAAG	-0.0589
GGUCACGUCUCAAUCAACUCUAUCGCAGGAGUUUCCUCCUGGUAAUUCAACAGCUCGCAGUCAAG	-0.00293
GGUCACGUCUCAAUCAACUCAUCCUCCAGGGAAAUCCCUGGCAUUUUCAACAGCUCGCAGUCAAG	0.00639
GGUCACGUCUCAAUCAACUCUUCCUCAGGAGUUUCCUCCUGUAUAUUCAACAGCUCGCAGUCAAG	0.126
GGUCACGUCUCAAUCAACUCAUCCGCAGGAGUUUUCUCCUGGAAAUUCAACAGCUCGCAGUCAAG	-0.0219
GGUCACGUCUCAAUCAACUCUUCUCCCAGGGAAACCCCUGGCAUAUUCAACAGCUCGCAGUCAAG	-0.126

Sequence	binding signal (log2 fold change)
GGUCACGUCUCAAUCAACUCUAUCUCCAGGGAAACCCCUGGUUUUCUCAACAGCUCGCAGUCAAG	0.0543
GGUCACGUCUCAAUCAACUCUUUCUCCAGGGAAACCCCUGGCUAUCUCAACAGCUCGCAGUCAAG	0.0669
GGUCACGUCUCAAUCAACUCUUUCCCCAGGGAAAACCCUGGCAAUGUCAACAGCUCGCAGUCAAG	0.222
GGUCACGUCUCAAUCAACUCUCACGAGGGGGGGAAAACCCCUUUACCCUCUAACUCAACAGCUCGCAGUCAAG	-0.274
GGUCACGUCUCAAUCAACUCAAAGGAGGGGGGGAAAACCCCUUUACCCUCAUCAUCAACAGCUCGCAGUCAAG	0.00381
GGUCACGUCUCAAUCAACUCUAUCUCCAGGGAAAGCCCUGGCAUACUCAACAGCUCGCAGUCAAG	0.107
GGUCACGUCUCAAUCAACUCAUCCUCCAGGGAAAUCCCUGGCUAUCUCAACAGCUCGCAGUCAAG	0.258
GGUCACGUCUCAAUCAACUCAAUUCCCAGGGAAAACCCUGGCAUUUUCAACAGCUCGCAGUCAAG	0.167
GGUCACGUCUCAAUCAACUCUAUUUCCAGGGAAAUCCCUGGCUAUUUCAACAGCUCGCAGUCAAG	0.25
GGUCACGUCUCAAUCAACUCUAUCUCAGGAGUUUCCUCCUGCUUUCUCAACAGCUCGCAGUCAAG	0.25
GGUCACGUCUCAAUCAACUCAACUUCAGGAGUUUACUCCUGCAUUCUCAACAGCUCGCAGUCAAG	0.173
GGUCACGUCUCAAUCAACUCUUUCGCAGGAGUUUACUCCUGGUAUUUCAACAGCUCGCAGUCAAG	-0.142
GGUCACGUCUCAAUCAACUCAUUUCCCAGGGAAACCCCUGGCUAUUUCAACAGCUCGCAGUCAAG	0.109
GGUCACGUCUCAAUCAACUCAAUCCCAGGAGUUUUCUCCUGUUAUCUCAACAGCUCGCAGUCAAG	0.241
GGUCACGUCUCAAUCAACUCAUCCCCCAGGGAAACCCCUGGCAUACUCAACAGCUCGCAGUCAAG	-0.0372
GGUCACGUCUCAAUCAACUCAUCGGCAGGAGUUUACUCCUGGAAUCUCAACAGCUCGCAGUCAAG	-0.0689
GGUCACGUCUCAAUCAACUCUAUCUCAGGAGUUUCCUCCUGCAUUCUCAACAGCUCGCAGUCAAG	0.0395
GGUCACGUCUCAAUCAACUCAGUCUCAGGAGUUUUCUCCUGCAUUCUCAACAGCUCGCAGUCAAG	0.215
